Consider 21 variants from the RNAGym collection of RNA variant scans (doi:10.7554/elife.90254).

The chains are these.
B1: OR4K15 (parent)
chain: GUUAACGGUCAUAGGCCAUGGAAACUAGGAGCACCAUUUCGCUGCCAGUGAAGAAAUGAACAAAGAAAAUCUGGGCCAGGCAGGCAUCAAAAGAAAUAGUCUUGCGCUCAACCAGAAAGUCUGUAAUCAUUUUAAGGGUA

The source gives no read counts; variants with many changes may rest on few reads.

This series covers variants of B1. Put plainly: self-cleavage, relative activity (ratio to wild type); higher = more cleavage; in vitro, sequencing; the parent is a self-cleaving ribozyme.
Turning to GUUAACGGUCAUAGGCCAUGGAAACUAGGAGCACCAUUUCGCCGCCAGUGAAGUAAUGAACAAAGAAAAUCUGGGCCAGGCAGGCAUCAAAAGAGAUAGUCUUGCGCUCAACCAGAAAGUCUGUAAUCAUUUUAAGGGUA, the self-cleavage turned out to be 2.16.
The result for GUUAACGGUCAUAGGCCAUGGAAACUAGGAGCACCAUUUCGCCGCCAGUGAAGAAAUGGACAAAGAAAAUCUGGGCCAGGCAGGCAACAAAAGAAAUAGUCUUGCGCCCAACCAGAAAGUCUGUAAUCAUUUUAAGGGUA reads 0.03; that for GUUAACGGUCAUAGGCCAUGGAAACUAGGAGCACCAUUUCGCCGCCAGUGAAGAAAUGAACUAAGAAAAUCUGGGCCAGGCAGGCAUCAAAAGAAAUUGUCUUGCGCUCAACCAGAAAGUCUGUAAUCAUUUUAAGGGUA, 2.28; that for GUUAACGGUCAUAGGCCAUGGAAACUAGGAGCACCAUUUCGCCGCCAGUGAAGAAAUGAACGAAGAAAAUCUGGGCCAGGCAGGCACCAAAAGAGAUAGUCUUGCGCUCAACCAGAAAGUCUGUAAUCACUUUAAGGGUA, 0.24.
As for GUUAACGGUCAUAGGCCAUGGAAACUAGGAGCACCAUUUCGCCGCCAGUGAAGAAAUGAACGAAGAAAAUCUGGGCCAGGCAGGCAUCAAAGGAAAUAGUCUUGCGCUCAACCAGAAAGUCUGAAAUCAUUUUAAGGGUA, the figure is 0.13; as for GUUAACGGUCAUAGGCCAUGGAAACUAGGAGCACCAUUUCGCCGCCGGUGAGGAAAUGAACAAAGAAAAUCUGGGCCAGGCAGGCAUCAAAAGAAAUAGUCUUGCGCUCAACCAGAAAGUCUGUAAUCAUUUUAAGGGUA, 0.79; as for GUUAACGGUCAUAGGCCAUGGAAACUAGGAGCACCAUUUCGCCGCCAGUGAAGAAAUGAGCAAGGAAAAUCUGGGCCAGGCAGGCAUCAAUAGAAAUAGUCUUGCGCUCAACCAGGAAGUCCGUAAUCAUUUUAAGGGUA, 0.58.
As for GUUAACGGUCAUAGGCCAUGGAAACUAGGAGCACCAUUUCGCCGCCAGUGAAGAGAUGAACAAAGAAAAUCUGGGCCAGGCAGGUAUCAAAAGAAAUAGUCUUGCGCUCAACCAGAAAGUCCGUAAUCAACUUAAGGGUA, the figure is 0.74; as for GUUAACGGUCAUAGGCCAUGGAAACUAGGAGCACCAUUUCGCCGCCAGUGAAGAAGUGAACAAAGAAAACCUGGGCCAGGCAGGCAUCAAAAGAAAUAGUCUUGCGCUCAACCAGAAAGUCCGUAAUCAUUUUAAGGGUA, 0.41; as for GUUAACGGUCAUAGGCCAUGGAAACUAGGAGCACCAUUUCGCCGCCAGUGGAGAAAUGAACAAAGAAAAUCUGGGCCAGGCUGGCAUCAAGAGAAAUAGUCUUGCGCUCAACCAGAAAGUCUGUAAUCAUUUUAAGGGUA, 0.22.
In the case of GUUAACGGUCAUAGGCCAUGGAAACUAGGAGCACCAUUUCGCCGCCAGUGAAGAAAUGAACGAAGAGAAUCUGGGCCAGGCAGGCAUCAAAAGAAAUAGUCUUGCGCUCAACCAGAAUGUCUGUAGUCAUUUUAAGGGUA, the self-cleavage worked out at 0.39.
GUUAACGGUCAUAGGCCAUGGAAACUAGGAGCACCAUUUCGCCGCCGGUGAAGAAGUGAACAAAGAAAAUCUGGGCCAAGCAGGCAUCAAAAGAAAUGGUCUUGCGCUCAACCAGAAAGUCUGUAAUCAUUUUAAGGGUA: the self-cleavage worked out at 0.02.
The result for GUUAACGGUCAUAGGCCAUGGAAACUAGGAGCACCAUUUCGCCGCCUGUGAAGAAAUGAACAGAGAAAAUCUGGGCCAGGCAAGCAUCAAAAGAAAUAGUCUCGCGCUCAACCUGAAAGUCUGUACUCAUUUUAAGGGUA reads 0.
The result for GUUAACGGUCAUAGGCCAUGGAAACUAGGAGCACCAUUUCGCAGCCAGUGAAGAAAUGAACAAAGAAAAUCUGGGCCAGGCAGGCAUCAAAAGAAAUAGUCUUGCGCCCAACCAGAAAGCCUGUAGUCAUUUUAAGGGUA reads 0; that for GUUAACGGUCAUAGGCCAUGGAAACUAGGAGCACCAUUUCGCCGCCAGUGAGGAAAUGAACAAAGAAAAUCUGGGCCAGGCAGGCAUCAAAAGAAAUAGUCUUGCGCUCAACCAGAAAGUCCGUAAUCAUUUUAAGGGUA, 1.2; that for GUUAACGGUCAUAGGCCAUGGAAACUAGGAGCACCAUUUCGCAGCCAGUGAAGAAAUGAACAAAGAAAAUCUGGGCCAGGCAGGCACCAAAAGAAAUAGUCUAGCGCUCAACCAGAAAGUCUGUAACCAUUUUAAGGGUA, 0.09.
The result for GUUAACGGUCAUAGGCCAUGGAAACUAGGAGCACCAUUUCGCAGCCAGUGAAGAAAUGAACAAAGAAAACCUGGGCCAGGCAGGCAUCAAAAGAAAUAGUCUUGCGCUCGACCAGAAAGUCUGUAAUCAUUUUAUGGGUA reads 0.11; that for GUUAACGGUCAUAGGCCAUGGAAACUAGGAGCACCAUUUCGCCGCCAGUGAGGAAAUGUACAAAGGAAAUCUGGGCCAGGCAGGCAUCGAAAGAAAUAGUCUUGCGCUCAACCAGAAAGUCUGUAAUCAUUUUAAGGGUA, 1.25.
GUUAACGGUCAUAGGCCAUGGAAACUAGGAGCACCAUUUCGCCGCCAGUGAAGAAGUGAACAAAGAAAAUCUGGGCCAGGCAGGCAUCAAAAGAAAUAGUCUUGCGCUCAACCGGAAAGUCUGUAAUCAUUUUAAGGGUA: the self-cleavage was 0.16.
The result for GUUAACGGUCAUAGGCCAUGGAAACUAGGAGCACCAUUUCGCCGCCAGUGAAGAAAUGAGCAAAGAAAAUCUGGGCCAGGCAGGCAUCCAAAGAAAUAGUCUUGCGCUCAACCAAAAAGUCUGUAGUCAUUUUAAGGGUA reads 0.03; that for GUUAACGGUCAUAGGCCAUGGAAACUAGGAGCACCAUUUCGCCGCCAGUGGAGAAAUGAACAAUGAAAAUCUGGGCCAGGCAGGCAUCAAAAGAAAUAGUCUUGCGCUCAACCAGAAAGUCUGUAAUCAUUUUAAGGGUA, 0.63.
